# In PubChem BioAssay AID504332 (National Center for Advancing Translational Sciences (NCATS), 2011):
# In all, about 350,000 compounds went through this assay and about 31,000 (8.9%) were called active. Inconclusive results, whose numbers are uncertain, are shown with a selection of clear calls. Calls come from the whole dose curve; as a rule, active = well fitted inhibition curve with a large enough effect; inconclusive = small, poorly fitted or top-dose-only effect; inactive = no such curve, though single readings can be large or run the other way. Potencies of inconclusive entries are doubtful fits and often do not repeat. Some structures have more than one record in an assay (separate samples or runs), and their calls can disagree.
# Target: Histone-lysine N-methyltransferase EHMT2 (Homo sapiens) (UniProt Q96KQ7)
# Sequence of UniProt Q96KQ7 (Q96KQ7 whole entry, looked up): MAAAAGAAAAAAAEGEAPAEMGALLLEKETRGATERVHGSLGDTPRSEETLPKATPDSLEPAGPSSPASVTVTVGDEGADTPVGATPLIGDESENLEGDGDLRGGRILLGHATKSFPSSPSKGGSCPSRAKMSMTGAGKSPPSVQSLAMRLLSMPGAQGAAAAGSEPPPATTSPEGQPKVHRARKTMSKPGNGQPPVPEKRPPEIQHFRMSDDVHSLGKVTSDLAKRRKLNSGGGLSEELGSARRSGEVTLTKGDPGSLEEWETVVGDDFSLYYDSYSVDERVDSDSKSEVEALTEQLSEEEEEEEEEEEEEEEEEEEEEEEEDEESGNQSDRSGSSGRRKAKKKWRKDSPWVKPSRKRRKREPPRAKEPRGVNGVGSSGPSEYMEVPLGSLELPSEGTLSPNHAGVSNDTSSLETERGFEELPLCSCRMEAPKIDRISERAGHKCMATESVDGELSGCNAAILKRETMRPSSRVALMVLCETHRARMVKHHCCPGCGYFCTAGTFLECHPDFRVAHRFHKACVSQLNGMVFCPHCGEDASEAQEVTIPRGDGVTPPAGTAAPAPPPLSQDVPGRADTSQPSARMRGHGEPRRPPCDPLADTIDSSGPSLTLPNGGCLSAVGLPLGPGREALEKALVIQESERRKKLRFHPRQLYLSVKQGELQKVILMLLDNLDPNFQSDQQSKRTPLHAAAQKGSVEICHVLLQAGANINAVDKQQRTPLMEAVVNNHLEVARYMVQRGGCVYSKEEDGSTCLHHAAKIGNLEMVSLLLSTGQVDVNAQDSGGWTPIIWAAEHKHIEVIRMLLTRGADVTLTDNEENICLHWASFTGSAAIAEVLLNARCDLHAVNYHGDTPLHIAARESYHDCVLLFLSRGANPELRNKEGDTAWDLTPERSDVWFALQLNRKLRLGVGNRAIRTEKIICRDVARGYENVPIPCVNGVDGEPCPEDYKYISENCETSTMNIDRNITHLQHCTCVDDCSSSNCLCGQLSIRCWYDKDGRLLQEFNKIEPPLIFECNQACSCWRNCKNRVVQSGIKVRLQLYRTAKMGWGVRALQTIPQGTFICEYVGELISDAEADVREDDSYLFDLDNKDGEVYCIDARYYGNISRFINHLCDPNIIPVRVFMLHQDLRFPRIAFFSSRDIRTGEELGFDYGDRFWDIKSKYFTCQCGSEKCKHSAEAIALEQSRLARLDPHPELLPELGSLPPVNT
# Assay: qHTS Assay for Inhibitors of Histone Lysine Methyltransferase G9a; note: nearly all actives have a fitted effect of over 75% in size
# Conditions: G9a H3K9 monomethylation, AlphaScreen, 2 h; activity, negative = inhibition: at 59 µM (top of the series) unless noted
# How it was run: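 AlphaScreen detection with an anti-monomethyl H3K9 antibody quantified product after a 2 h room-temperature reaction containing 500 nM biotinylated H3K9 peptide, 20 µM SAM and 20 nM enzyme, which had been preincubated 15 min with compound.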
# % is set by controls: 0 for no effect and ±100 for the full control effect; potency is the fitted concentration of half-maximal effect; tags give direction and shape of the fitted curve.
SMILES,Potency,"activity, negative = inhibition"
CCN1CCN(c2cc(C)c3cc(NC(=S)N4CCOCC4)ccc3n2)CC1,active: 39.8 µM,
O=C(O)c1cc2nccc(-c3ccc(F)cc3)n2n1,"inconclusive: 89.1 µM [inhibitor, partial curve, poor fit]",
COc1ccc(CNC(=O)Cc2csc(NC(=O)Nc3ccccc3OC)n2)cc1,"inconclusive: 39.8 µM [inhibitor, partial curve]",
CCOc1ccc(S(=O)(=O)Nc2cccc(C(=O)N3CCN(c4ccccc4O)CC3)c2)cc1,"inconclusive: 3.55 µM [inhibitor, single point]",
COc1cc(C(=O)NCC(c2cccnc2)N2CCc3ccccc32)cc(OC)c1OC (stereo not given),inactive,
CCC(C)NC(=S)N1CCN(C(c2ccccc2)c2ccccc2)CC1 (stereo not given),inactive,
Cc1cc(NC(=O)CSc2nnc(-c3cccnc3)n2N)no1,"inconclusive: 3.16 µM [inhibitor, single point]",
COc1cc(NC(=O)N2CCC(CN3CCCC3)CC2)cc(OC)c1OC,inactive,
CCc1cc2c(=O)n(Cc3ccco3)c(SCc3c(C)noc3C)nc2s1,,inconclusive: -60.1% [inhibitor]
COc1ccc(CC(=O)NCCc2ccc(Cl)cc2Cl)cc1,inactive,
CC(C)(C)NC(=O)NC(=O)CN1CCN(c2ccc(O)cc2)CC1,active: 3.16 µM,
Cc1cc(C)cc(Nc2ccc([N+](=O)[O-])nc2[N+](=O)[O-])c1,"inconclusive: 22.4 µM [inhibitor, single point]",
COc1cc(C2C(=O)N(C3CCCCC3)CC(=O)N2Cc2ccc(C)cc2)ccc1OC(C)C (stereo not given),inactive,
O=C(CSc1nccn1-c1ccc(F)cc1)Nc1ccc(OC(F)(F)F)cc1,"inconclusive: 11.2 µM [inhibitor, partial curve]",
O=C(O)c1ccccc1C(=O)NCc1ccc(F)cc1,inactive,
CCc1ccc(C2c3[nH]c4ccccc4c3CCN2C(=O)c2ccc(=O)n(C)n2)cc1 (stereo not given),"inconclusive: 44.7 µM [inhibitor, partial curve]",
Cc1ccc2c(N)c(C)ccc2c1,"inconclusive: 8.91 µM [inhibitor, full curve, poor fit]",
Cc1ccc(S(=O)(=O)NCC(c2cccnc2)N2CCc3ccccc32)cc1 (stereo not given),active: 39.8 µM,
CCOC(=O)c1ccc(S(=O)(=O)N2CCN(c3ccccn3)CC2)cc1,"inconclusive: 89.1 µM [inhibitor, single point]",
Cc1ccc2c(c1)N(CC(=O)NCCc1ccccc1)C(=O)c1cccnc1O2,inactive,
CCc1ccccc1NC(=O)CN1CCN(C(=O)CN2C(=O)NC3(CCCC3)C2=O)CC1,,inactive: 0.417% [at 2.33 µM]
O=C(O)c1cc(-c2ccc(/C=N/Nc3ccc(Cl)cc3)o2)ccc1Cl,"inconclusive: 20 µM [inhibitor, single point]",
Cn1c(CCC(=O)Nc2ccccc2F)nnc1SCC(=O)Nc1ccccc1Cl,inactive,
O=C(COc1ccccc1)OCc1csc(Nc2ccccc2)n1,"inconclusive: 0.794 µM [inhibitor, full curve]",
COc1cccc2cc(-c3ccnc(=S)[nH]3)oc12,inactive,

SMILES,Potency,"activity, negative = inhibition"
CN(C(=O)COc1cc(=O)n(C)c2ccccc12)c1cccc(Cl)c1,"inconclusive: 89.1 µM [inhibitor, single point]",
O=C1CSC(=S)N1c1ccc(F)cc1,"inconclusive: 79.4 µM [inhibitor, single point]",
N#C/C(=C\c1ccc(-c2cc(Cl)ccc2Cl)o1)C(=O)Nc1cccc2ncccc12,"inconclusive: 3.55 µM [inhibitor, partial curve, poor fit]",
COc1ccc(-n2ccnc2SCC(=O)NC2CCCC2)cc1,"inconclusive: 35.5 µM [inhibitor, single point]",
Cc1ccc([N+](=O)[O-])c(OCCCN2CCCCCC2)c1,"inconclusive: 7.94 µM [inhibitor, full curve, poor fit]",
Cc1c(NS(=O)(=O)c2cc(C(=O)NCC3CCCO3)cc(Cl)c2Cl)c(=O)n(-c2ccccc2)n1C (stereo not given),"inconclusive: 89.1 µM [inhibitor, single point]",
Cc1cccc(NS(=O)(=O)c2ccc(Br)s2)n1,"inconclusive: 5.62 µM [inhibitor, single point]",
CCCCC1=CC2=C(c3ccco3)C(=O)C(C)(OC(=O)c3ccc(OC)cc3)C(=O)C2=CN1CC(C)C (stereo not given),"inconclusive: 10 µM [inhibitor, single point]",
O=C(CSc1ccc(-c2ccccn2)nn1)NCc1ccccc1,inactive,
COc1cc(/C=C/C(=O)c2cccc([N+](=O)[O-])c2)cc(OC)c1OC,"inconclusive: 28.2 µM [inhibitor, single point]",
Cc1ccc(SC(C)C(=O)NCCC2=CCCCC2)cc1 (stereo not given),inactive,
COc1ccc(NC(=S)NC(=O)CC(C)C)c(OC)c1,"inconclusive: 79.4 µM [inhibitor, partial curve, poor fit]",
CCCCn1c(N)c(N(CCOC)C(=O)COC(=O)CSc2cc(C)c3ccccc3n2)c(=O)[nH]c1=O,,inactive: -6.31% [at 2.33 µM]
COc1ccc(Cl)cc1NC(=O)COC(=O)Cc1cccs1,,inactive: -3.8% [at 0.501 µM]
CCN(c1ccccc1)S(=O)(=O)c1nnc(NC(=O)c2cccs2)s1,"inconclusive: 8.91 µM [inhibitor, full curve]",
Cc1ccc(-n2nc(C)c(NC(=O)CCl)c2C)cc1,inactive,
CCn1c(CSc2nc3ccccc3s2)nnc1SCC(=O)c1ccc(Cl)cc1,"inconclusive: 39.8 µM [inhibitor, single point]",
Cc1oc(-c2ccc(Cl)cc2)nc1CS(=O)CC(=O)NC1CCCCC1 (stereo not given),"inconclusive: 79.4 µM [inhibitor, single point]",
COc1cc(CNCCO)cc(Cl)c1OCc1ccc(Cl)cc1Cl,inactive,
O=C(Nc1cccc(F)c1)c1ccc2snnc2c1,inactive,
N#Cc1nc(-c2cccs2)oc1NCc1ccc(Cl)cc1,active: 7.94 µM,
CN(C(=O)c1cc(-n2cnnc2)ccc1Cl)c1ccccc1,inactive,
COc1ccc(C(=O)N2CCN(Cc3ccccc3C)CC2)cc1OC,"inconclusive: 2.24 µM [inhibitor, partial curve, poor fit]",
Cc1ccccc1-n1nc2c(c1NC(=O)c1c(-c3ccccc3Cl)noc1C)CSC2,inactive,
O=C(COC(=O)c1c[nH]c(=O)[nH]c1=O)Nc1ccccc1F,"inconclusive: 79.4 µM [inhibitor, single point]",

SMILES,Potency,"activity, negative = inhibition"
Cc1nc(NC(=O)CSc2ccc(-c3nc4ccccc4[nH]3)cn2)sc1C,"inconclusive: 79.4 µM [inhibitor, single point]",
O=C(NCc1ccc(Cl)cc1)c1cnc(N2CCCCC2)c2ccccc12,inactive,
O=C(O)c1cc(-n2c(/C=C\c3ccc(F)cc3)nc3ccccc3c2=O)ccc1Cl,inactive,
CCC(C)(C)NC(=O)CN(C(=O)C(=O)Nc1ccc2c(c1)OCCO2)C1CC1,inactive,
CC(C)c1nnc(NC(=O)CCS(=O)(=O)c2ccccc2)s1,"inconclusive: 44.7 µM [inhibitor, partial curve, poor fit]",
Cc1ccc(Nc2nc(-c3sc(NC(=O)c4ccccc4)nc3C)cs2)cc1,,inconclusive: -81.9% [inhibitor]
Nc1nc(-c2ccccc2)c(N=Nc2cccc3ccccc23)s1,active: 10 µM,
O=C(O)/C=C/c1ccc([N+](=O)[O-])o1,active: 22.4 µM,
O=C(c1ccco1)N1CCN(C(=O)c2ccc(-c3ccc(Cl)cc3)o2)CC1,"inconclusive: 14.1 µM [inhibitor, single point]",
O=c1c2ccccc2nc(COc2ccccc2)n1/N=C/c1ccc(O)c(O)c1,active: 3.16 µM,
Cc1cc2cc(CN(Cc3nnnn3C3CCCCC3)CC3CCCO3)c(=O)[nH]c2cc1C (stereo not given),"inconclusive: 39.8 µM [inhibitor, single point]",
Cc1nnc(SCc2ccccc2)n(N)c1=O,inactive,
CCOC(=O)Cc1ccc(NC(=O)N2CCOc3ccc(C)cc32)cc1,inactive,
CCc1ccc(NC(=O)C(=O)NNC(=O)c2cccs2)cc1,inactive,
O=C(OCC(=O)N1CCN(c2ccccc2)CC1)c1ccc(Cl)nc1,"inconclusive: 79.4 µM [inhibitor, partial curve, poor fit]",
O=C(Nc1cc2c3c(c1)CC(=O)N3CCC2)c1ccccc1F,inactive,
COc1ccc2c3c(c(=O)oc2c1)C1O[C@](CCCCN2C(=O)c4ccccc4C2=O)(Cc2c1ccc1ccccc21)O3,,inactive: -1.18% [at 2.33 µM]
COC(=O)C1=C(C)NC(=S)NC1/C=C/c1ccccc1 (stereo not given),"inconclusive: 50.1 µM [inhibitor, partial curve, poor fit]",
O=C(COc1ccccc1)N/N=C/c1sc(=O)n(Cc2cccc(C(=O)O)c2)c1Cl,"inconclusive: 50.1 µM [inhibitor, partial curve, poor fit]",
C=CCN=C1N[C@@H](c2cccc(C(F)(F)F)c2)C(C(=O)OC)=C(C)N1CC,active: 28.2 µM,
CCCCn1c(N)c(N(CC)C(=O)c2ccc(C#N)cc2)c(=O)[nH]c1=O,active: 50.1 µM,
Cc1nnc(N/N=C/c2ccco2)n1N,inactive,
Cc1ccc(OC(C)C(=O)Nc2nonc2-c2ccc(Br)cc2)cc1C (stereo not given),"inconclusive: 39.8 µM [inhibitor, partial curve, poor fit]",
Nc1nc2ccc(NC(=O)c3ccco3)cc2s1,"inconclusive: 22.4 µM [inhibitor, partial curve, poor fit]",
O=C(CN1C(=O)NC2(CCCCCC2)C1=O)Nc1cccc(F)c1,"inconclusive: 3.55 µM [inhibitor, single point]",
